# Data published in PubChem BioAssay (Tox21).
# Several values for one entry are separate records, joined by “and”; a condition that tells them apart may be missing. Equal values may be shown once. The shares of active, inactive and inconclusive entries below differ from those in the screen. For part of these data: Where the call is inconclusive, the potency comes from a doubtful curve fit. More than one record can exist for a structure, and the calls need not agree. Activity calls are given as the source filed them. Unless noted, calls follow the shape of the dose curve; as a rule, active = well fitted curve in the direction sought with a large enough effect in the repeat runs; inconclusive = weak or mixed curves; inactive = no such curve, though single readings can be large; an effect the other way counts as inactive or inconclusive.
# Columns and labels:
# [1] = qHTS assay to identify small molecule agonists of H2AX (AID 1224845; active = well fitted activation curve with a large enough effect in the signal ratio in the repeat runs, not every such curve was filed as active; inconclusive = weak or mixed curves; the % refers to the signal ratio; also: potency is read from the fitted curve at half-maximal effect; as to activation (H2AX phosphorylation): % is scaled to controls: 0 for no effect and ±100 for the full control effect); settings: CHO-K1 phospho-H2AX Ser139 HTRF, 3 h; activation (H2AX phosphorylation): at 154 µM (top of the series) unless noted
# In short: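 Wild-type CHO-K1 cells, plated overnight, exposed 3hr at 37C to 15 concentrations (0.76% DMSO final). Lysed, then HTRF anti-pH2AX (S139) cryptate and anti-H2AX-d2 antibodies, 24 hr room temperature; 665/620 nm emission read.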
# [2] = qHTS assay to identify small molecule agonists of H2AX - cell viability counter screen (AID 1224847; calls by dose curve; also: potency is read from the fitted curve at half-maximal effect; nearly all actives have a fitted effect of over 30% in size)
# In short: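 Compounds tested at 15 concentrations were incubated 3 hr at 37C with wild-type CHO-K1 cells; cellular ATP-based luminescence (CellTiter-Glo) indicated viability.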
# [3] = qHTS RealTime-Glo MT Cell Viability Assay in HepG2 cells - 24 hour (AID 1224867); also: nearly all actives have a fitted effect of over 50% in size; also: potency is read from the fitted curve at half-maximal effect
# In short: (§1)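 Cells + NanoLuc/prosubstrate dispensed (600 cells/well) → 5 h at 37 C/5% CO2 → compounds in DMSO transferred → 40 h incubation at 37 C, luminescence read at 0, 8, 16, 24, 32, 40 h.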
# [4] = qHTS RealTime-Glo MT Cell Viability Assay in HEK293 cells - 32 hour (AID 1224868); also: potency is read from the fitted curve at half-maximal effect; nearly all actives have a fitted effect of over 50% in size
# In short: (§2)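 Tox21 10K qHTS, HEK293, 600 cells/well, RealTime-Glo reagent co-dispensed with cells; 5 h preincubation, compound by pintool, 37 C, luminescence at 0–40 h.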
# [5] = qHTS RealTime-Glo MT Cell Viability Assay in HepG2 cells - 40 hour (AID 1224870); also: potency is read from the fitted curve at half-maximal effect; nearly all actives have a fitted effect of over 50% in size
# In short: (§3)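 HepG2 cells (600/well) mixed with RealTime-Glo MT reagent, settled 5 h at 37 C/5% CO2 before compound addition. Nonlytic NanoLuc luminescence from viable-cell prosubstrate reduction read repeatedly during 40 h treatment at 37 C.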
# [6] = qHTS RealTime-Glo MT Cell Viability Assay in HEK293 cells - 16 hour (AID 1224872); also: potency is read from the fitted curve at half-maximal effect; nearly all actives have a fitted effect of over 50% in size
# In short: as §2
# [7] = qHTS RealTime-Glo MT Cell Viability Assay in HEK293 cells - 40 hour (AID 1224874); settings: RealTime-Glo luminescence; max response: stronger effect = lower value
# In short: (§4)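 Luminescence, which tracks viable cell number through reduction of the prosubstrate to a NanoLuc substrate, was read over continuous 37 C culture. Cells (600/well) were premixed with reagent and rested 5 h before 23 nL of compound in DMSO was pinned.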
# [8] = A CellTox Green Cytotoxicity Assay to monitor cytotoxicity in HepG2 cells - 16 hour (AID 1224876); also: potency is read from the fitted curve at half-maximal effect; nearly all actives have a fitted effect of over 45% in size
# In short: (§5)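 Real-time cytotoxicity: fluorescence of a cell-impermeant cyanine dye binding DNA of dead HepG2 cells, measured repeatedly (0–40 h) during compound exposure at 37 C. Cells seeded 600/well with reagent, dosed after 5 h.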
# [9] = qHTS RealTime-Glo MT Cell Viability Assay in HepG2 cells - 32 hour (AID 1224877); also: nearly all actives have a fitted effect of over 55% in size; also: potency is read from the fitted curve at half-maximal effect
# In short: as §1
# [10] = A CellTox Green Cytotoxicity Assay to monitor cytotoxicity in HepG2 cells - 40 hour (AID 1224879); also: potency is read from the fitted curve at half-maximal effect; nearly all actives have a fitted effect of over 40% in size
# In short: as §5
# [11] = qHTS RealTime-Glo MT Cell Viability Assay in HEK293 cells - 0 hour (AID 1224880); also: potency is read from the fitted curve at half-maximal effect; nearly all actives have a fitted effect of over 45% in size
# In short: as §4
# [12] = qHTS assay to identify small molecule antagonists of the estrogen related receptor (ERR) signaling pathway from Tox21 library (AID 1224848); also: nearly all actives have a fitted effect of over 50% in size; also: potency is read from the fitted curve at half-maximal effect
# In short: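 Quantitative high-throughput format: ERR reporter cells (2,000/well) pre-incubated 6 h, treated 18 h at 37 C with compounds in DMSO alongside positive and negative controls, then read by ONE-Glo luminescence.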
# [13] = A CellTox Green Cytotoxicity Assay to monitor cytotoxicity in HEK293 cells - 24 hour (AID 1224875); also: nearly all actives have a fitted effect of over 45% in size; also: potency is read from the fitted curve at half-maximal effect; as to activity change: % is scaled to controls: 0 for no effect and ±100 for the full control effect
# In short: (§6)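 Fluorescence from a DNA-binding dye excluded by viable cells was measured repeatedly in the same HEK293 wells (600 cells/well) during continuous compound exposure at 37 C. Each assay gives one read point: 0, 8, 16, 24, 32 or 40 h.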
# [14] = A CellTox Green Cytotoxicity Assay to monitor cytotoxicity in HepG2 cells - 24 hour (AID 1224878); also: potency is read from the fitted curve at half-maximal effect; nearly all actives have a fitted effect of over 45% in size
# In short: as §5
# [15] = qHTS assay to identify small molecule agonists of the estrogen related receptor (ERR) signaling pathway from Tox21 library (AID 1224849; calls by dose curve; also: % is scaled to controls: 0 for no effect and ±100 for the full control effect; nearly all actives have a fitted effect of over 15% in size); settings: ERR reporter cell line, ONE-Glo luciferase, 18 h; at 42.5 µM (top of the series)
# In short: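 Luminescent agonist read-out (One-Glo, 30-minute room-temperature incubation) following 18-hour compound treatment at 37 C of the ERR cell line, which had been plated 6 hours before dosing.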
# [16] = A CellTox Green Cytotoxicity Assay to monitor cytotoxicity in HEK293 cells - 40 hour (AID 1224871)
# In short: as §6
# [17] = A CellTox Green Cytotoxicity Assay to monitor cytotoxicity in HEK293 cells - 32 hour (AID 1224881); also: potency is read from the fitted curve at half-maximal effect; nearly all actives have a fitted effect of over 40% in size
# In short: as §6
# [18] = qHTS RealTime-Glo MT Cell Viability Assay in HepG2 cells - 8 hour (AID 1224873); also: potency is read from the fitted curve at half-maximal effect; nearly all actives have a fitted effect of over 55% in size
# In short: as §3
# Tags tell the direction and shape of the fitted curve or compound fluorescence and quenching.
structure (smiles),measurement,setting,value
Cc1nc(Nc2ncc(C(=O)Nc3c(C)cccc3Cl)s2)cc(N2CCN(CCO)CC2)n1,Potency,[1],active: 55.2 µM
same,Potency,[2],"inconclusive: 61.9 µM [cytotoxic, single point]"
same,Potency,[3],"inconclusive: 26.8 µM [falling, single point]"
same,Potency,[4],active: 30.1 µM
same,Potency,[5],"inconclusive: 26.8 µM [falling, single point]"
same,Potency,[6],"inconclusive: 26.8 µM [cytotoxic, partial curve]"
same,Potency,[7],"inconclusive: 30.1 µM [cytotoxic, partial curve, poor fit]"
same,Potency,[8],"inconclusive: 15.1 µM [activator, partial curve, poor fit]"
same,Potency,[9],"inconclusive: 26.8 µM [cytotoxic, single point]"
same,Potency,[10],active: 26.8 µM
same,Potency,[11],active: 26.8 µM
Cc1cccc(O)c1N,Potency,[1],inconclusive: 90.7 µM [partial curve]
same,Potency,[12],"inconclusive: 12.3 µM [inhibitor, full curve]"
same,Potency,[4],"inconclusive: 15.6 µM [cytotoxic, full curve]"
same,Potency,[7],"inconclusive: 17.6 µM [cytotoxic, full curve]"
same,Potency,[9],inactive
COC(=O)C1CCC(C(=O)OC)CC1 (configuration not stated),Potency,[1],inactive
same,Potency,[12],inactive
same,Potency,[3],inactive
same,Potency,[13],inactive
Cc1c(O)cccc1C(=O)N[C@@H](CSc1ccccc1)[C@H](O)CN1C[C@H]2CCCC[C@H]2C[C@H]1C(=O)NC(C)(C)C,Potency,[1],"inconclusive: 124 µM [activator, single point]"
same,Potency,[2],"active: 49.2 µM and inconclusive: 17.5 µM [cytotoxic, full curve, poor fit]"
same,Potency,[3],"inconclusive: 53.5 µM [falling, partial curve] and inconclusive: 9.52 µM [falling, partial curve]"
same,Potency,[4],"active: 19 µM and inconclusive: 10.7 µM [cytotoxic, partial curve]"
same,Potency,[6],"inconclusive: 23.9 µM [cytotoxic, partial curve] and inconclusive: 10.7 µM [cytotoxic, full curve]"
same,Potency,[7],"inconclusive: 9.52 µM [cytotoxic, partial curve]"
same,Potency,[9],"inconclusive: 53.5 µM [cytotoxic, single point]"
same,Potency,[14],"inconclusive: 53.5 µM [activator, partial curve, poor fit]"
Oc1c(I)cc(I)c2cccnc12,Potency,[1],inconclusive: 55.2 µM
same,Potency,[12],inconclusive: 13.3 µM [inhibitor]
same,Potency,[4],"inconclusive: 26.8 µM [cytotoxic, single point]"
same,Potency,[7],"inconclusive: 26.8 µM [cytotoxic, single point]"
COC(=O)Nc1nc2ccc(S(=O)c3ccccc3)cc2[nH]1 (configuration not stated),Potency,[1],"inconclusive: 31 µM [fluorescent, partial curve]"
same,Potency,[12],"inconclusive: 12.2 µM [inhibitor, full curve]"
same,"activity change, positive = activation",[15],active: 3.15%
same,Potency,[16],"inconclusive: 23.9 µM [activator, partial curve]"
same,Potency,[6],"inconclusive: 15.5 µM [cytotoxic, full curve] and active: 1.34 µM"
same,Potency,[7],"inconclusive: 8.7 µM [cytotoxic, full curve]"
same,Potency,[10],"inconclusive: 9.76 µM [activator, partial curve, poor fit]"
CCc1cc(C(C)(C)C)c(O)c(C(C)(C)C)c1,Potency,[1],"inconclusive: 128 µM [activator] and inconclusive: 80 µM [activator, partial curve]"
same,Potency,[2],"inconclusive: 128 µM [cytotoxic, single point] and inconclusive: 101 µM [cytotoxic]"
same,Potency,[16],"inconclusive: 22.1 µM [activator, full curve, poor fit]"
same,Potency,[13],"inconclusive: 24.8 µM [activator, full curve, poor fit]"
same,Potency,[17],"inconclusive: 24.8 µM [activator, full curve, poor fit]"
Nc1ccc(N=Nc2ccccc2)c(N)c1,Potency,[1],"inconclusive: 55.5 µM [falling, partial curve]"
same,Potency,[2],active: 98.6 µM
same,Potency,[3],"inconclusive: 33.9 µM [falling, partial curve, poor fit]"
same,Potency,[6],active: 42.7 µM
same,Potency,[18],"inconclusive: 38.1 µM [falling, partial curve, poor fit]"
same,Potency,[11],"inconclusive: 53.8 µM [falling, partial curve, poor fit]"
CC(C)c1ccc2c(c1)CC[C@H]1[C@](C)(CN)CCC[C@]21C,Potency,[1],"inconclusive: 50.5 µM [activator, full curve]"
same,Potency,[2],active: 89.8 µM
same,Potency,[4],active: 11 µM
same,Potency,[13],active: 19.5 µM
same,Potency,[8],active: 19.5 µM
same,Potency,[11],"inconclusive: 38.9 µM [rising, partial curve]"
same,Potency,[17],active: 19.5 µM
